# Results as given in paper PMC4336329 (PLoS ONE, 2015).
# The campaign covered roughly 310,000 compounds. About 14,000 (4.5%) showed an effect of 50% or more. The effect is printed as a negative number. The list shows a part of the results.
# Molecular target: human ether-à-go-go-related gene (hERG) potassium channel (human, UniProt Q12809)
# Assay: primary screen, population patch clamp on CHO cells stably expressing hERG
# 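Further: peak tail current of the secondary pulse compared with the same well before compound.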
# Sequence of human ether-à-go-go-related gene (hERG) potassium channel (Q12809 whole entry, looked up): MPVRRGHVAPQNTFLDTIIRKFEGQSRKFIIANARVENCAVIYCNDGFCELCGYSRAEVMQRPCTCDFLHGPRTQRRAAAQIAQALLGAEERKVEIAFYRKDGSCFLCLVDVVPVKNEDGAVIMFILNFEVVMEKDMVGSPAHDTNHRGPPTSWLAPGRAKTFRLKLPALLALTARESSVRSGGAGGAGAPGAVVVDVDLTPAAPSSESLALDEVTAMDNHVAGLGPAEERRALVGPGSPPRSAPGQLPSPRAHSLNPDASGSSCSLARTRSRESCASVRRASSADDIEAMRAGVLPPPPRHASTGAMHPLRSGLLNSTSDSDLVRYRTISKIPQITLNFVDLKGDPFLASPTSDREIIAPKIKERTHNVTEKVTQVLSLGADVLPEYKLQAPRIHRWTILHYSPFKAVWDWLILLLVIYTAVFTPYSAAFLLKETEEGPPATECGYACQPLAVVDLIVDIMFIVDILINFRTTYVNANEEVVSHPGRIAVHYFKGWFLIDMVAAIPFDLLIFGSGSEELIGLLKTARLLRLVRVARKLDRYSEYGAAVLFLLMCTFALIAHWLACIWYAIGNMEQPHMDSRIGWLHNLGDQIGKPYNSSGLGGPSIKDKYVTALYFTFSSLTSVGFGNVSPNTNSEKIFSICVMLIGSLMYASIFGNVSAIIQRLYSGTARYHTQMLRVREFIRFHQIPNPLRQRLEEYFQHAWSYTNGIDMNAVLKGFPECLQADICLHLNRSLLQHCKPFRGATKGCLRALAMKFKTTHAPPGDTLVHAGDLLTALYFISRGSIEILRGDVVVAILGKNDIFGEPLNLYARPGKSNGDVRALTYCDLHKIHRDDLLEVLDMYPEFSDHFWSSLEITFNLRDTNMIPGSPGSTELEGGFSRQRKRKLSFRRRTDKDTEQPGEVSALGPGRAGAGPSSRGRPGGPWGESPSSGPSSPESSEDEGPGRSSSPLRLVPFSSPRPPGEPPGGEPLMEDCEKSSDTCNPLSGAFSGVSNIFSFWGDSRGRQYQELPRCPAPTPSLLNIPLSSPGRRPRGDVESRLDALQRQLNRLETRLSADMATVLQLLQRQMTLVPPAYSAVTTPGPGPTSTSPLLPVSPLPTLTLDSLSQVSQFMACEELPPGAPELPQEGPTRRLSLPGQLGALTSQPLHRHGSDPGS
row,Structure (SMILES),"hERG current change (%, negative = inhibition) at 10uM [%]"
1,Cc1cc(NC(=O)CSc2nnnn2Cc2ccccc2)no1,-0.78
2,COc1cc(CN2CCN(Cc3ccc4cc(F)ccc4n3)CC2CCO)cc(OC)c1 (centres unmarked),-64.4
3,COc1ccccc1C1(CC(=O)Nc2nccs2)CCOC(C(C)C)C1 (centres unmarked),-1.39
4,Cc1cc(NC(=O)CCS(=O)(=O)c2ccc3c(c2)NC(=O)C(C)S3)ccc1Br (centres unmarked),2.7
5,CCN1C(=O)NC(=O)/C(=C\c2cn(CC(=O)N3CCCCC3)c3ccccc23)C1=O,9.02
6,Cn1cnnc1SCc1ccc(C#N)cc1Cl,-11.5
7,CN(C(=O)c1ccc(NC(=O)Cc2ccc(NC(=O)C3CCN(C(=O)C4CCC4)CC3)cc2)cc1)C1CC1,17.1
8,C#CCOC(=O)CCCNc1ccc([N+](=O)[O-])cc1[N+](=O)[O-],-51.1
9,CC(/C=N/NC(=O)c1cc(-c2ccncc2)nc2ccccc12)=C\c1ccco1,-31.9
10,CN(C)c1cc(N/N=C\c2ccccc2)nc(N(C)C)n1,-31.4
11,C=CCNC(=O)/C(C#N)=C/c1ccccc1[N+](=O)[O-],-1.61
12,C/C(=N\Nc1ccc(C)c(Cl)c1)c1cccnc1,23
13,COc1ccc(NC(=O)CSc2nncc3ccccc23)cc1,-5.99
14,CCOc1ccc(-c2n[nH]c(=S)o2)cc1,21.2
15,CN(C)CCCN(Cc1cc2cc3c(cc2[nH]c1=O)OCO3)C(=S)Nc1ccccc1,-36.6
16,COCCN1Cc2cccc(C(=O)NCc3ccccc3OC)c2C1=O,-11.3
17,Cc1cccc(-c2noc(CCC(=O)NCCc3ccccc3)n2)c1,12
18,COc1ccccc1NC(=O)NCc1ccccc1F,14.7
19,CCCC(=O)NC(c1ccc(OC)c(OC)c1)c1c(O)ccc2ccccc12 (centres unmarked),-22.3
20,COc1ccc(O)c(/C=N/NC(=S)NCCc2ccccc2)c1,27.1
21,CCOc1cc(C#N)c(NC(=O)CSc2nnnn2-c2ccc(OC)cc2)cc1OCC,-31.3
22,CCCn1cc(CN2CCC(Oc3ccc(C(=O)N4CCCC4)cc3)CC2)c(C)n1,8.15
23,CC(C)C(OC(=O)c1ccccc1)c1nccc2ccccc12 (centres unmarked),-5.8

row,Structure (SMILES),"hERG current change (%, negative = inhibition) at 10uM [%]"
1,Cc1cc(C)cc(NC(=O)Nc2ccc(S(=O)(=O)Nc3cc(C)on3)cc2)c1,14.3
2,COCCOC(=O)C(C#N)c1nc2ccccc2nc1N1CCN(Cc2ccccc2)CC1 (centres unmarked),-64.3
3,COc1ccc(C2=Nn3c(nnc3-c3cc(C)[nH]n3)SC2)cc1,-64
4,CC1(C)C2CC=C(/C=N/NC(=O)c3ccc(O)cc3)C1C2 (centres unmarked),2.64
5,CCOC(=O)C(NC(=O)Nc1ccc(F)cc1F)(Oc1ccc(F)cc1)C(F)(F)F (centres unmarked),1.29
6,CCOc1ccc2nc(SCc3ccc(C(=O)OC)o3)[nH]c2c1,4.11
7,Cc1ccc(C2C(C#N)=C(N)Oc3c2c(=O)n(C)c(=O)n3C)cc1 (centres unmarked),-4.15
8,O=C(/C=C/c1ccccc1)N1CCOCC1,13.9
9,O=C(NCCO)NC(=S)c1ccccc1,3.09
10,COc1ccc(CCNC(=O)CSc2ccc(-c3ccco3)nn2)cc1,-4.99
11,COc1ccc(C(=O)NC2=NCCS2)cc1S(=O)(=O)N1CCCCC1C (centres unmarked),-13.5
12,Cc1ccc(N(CCC#N)C(=O)COC(=O)C2CCN(S(=O)(=O)c3ccc(C)c(C)c3)CC2)cc1,-14.9
13,COc1ccc(C(=O)N2CCCc3ccccc32)cc1OC,10.7
14,COc1cccc(OCC(=O)N(C)Cc2nc(-c3ccccc3)no2)c1,-12.1
15,COc1ccc2cc(-c3cc(C(=O)OCC(=O)NC4CCS(=O)(=O)C4)c4ccccc4n3)ccc2c1 (centres unmarked),16.1
16,Cc1ccc(NC(=O)COC(=O)C2CC2C)c(S(=O)(=O)N2CCCCC2)c1 (centres unmarked),-10.8
17,COc1cccc(C(=O)CC(=O)C(=O)Nc2cc(OC)ccc2OC)c1,11.1
18,Cc1cc(C(=O)N/N=C2\CC(=O)CC(C)(C)C2)c(C)n1-c1ccc(F)cc1,4.02
19,CC(C/C=N/NC(=O)COc1cc(Cl)ccc1Cl)c1ccccc1 (centres unmarked),5.8
20,Cc1ccnc(NC(=O)Nc2cccc(F)c2)c1,-4.23
21,O=C(Nc1cccc(S(=O)(=O)N2CCCC2)c1)c1ccc2ccccc2n1,20.9
22,O=C(CNC(=O)c1ccc(Br)o1)Nc1cccc(S(=O)(=O)N2CCOCC2)c1,-9.72
23,CCOC(=O)Cn1c(CN2CCN(C(c3ccccc3)c3ccccc3)CC2)nc2c1c(=O)n(C)c(=O)n2C,-38.7

row,Structure (SMILES),"hERG current change (%, negative = inhibition) at 10uM [%]"
1,CC(=O)NNC(=O)CCn1nnc2ccccc21,20.8
2,Cc1ccc(C)c2sc(NC(=O)CN3C(=O)CCC3=O)nc12,-15.9
3,COc1cc(C(=O)NCC(=O)NCCCSc2ccccc2)cc(OC)c1OC,-9.35
4,CCOc1ccc(NC(=O)CSc2nnc(Cc3ccccc3)c(=O)n2N)cc1,17.1
5,O=C(CN1CCN(Cc2ccccc2)CC1)NCC1COc2ccccc2O1 (centres unmarked),-43.8
6,COc1ccc(Cl)cc1NC(=O)CN(C)C(=O)c1cc2ccccc2cc1OC,-7.19
7,CC(C)N(C(=O)Cn1c(-c2ccccc2Cl)nc2ccccc21)c1ccccc1,-17.9
8,Clc1ncnc2scc(C3COc4ccccc4O3)c12 (centres unmarked),-2.46
9,COCCSc1ccccc1C(=O)N1CCCC1,3.39
10,O=C1c2ccccc2C(=O)N1CCn1ccnc1,20.2
11,COc1ccc(C(=O)COC(=O)c2ccccc2O)c(OC)c1,8.01
12,CCOC(=O)C1(CCCc2ccccc2)CCN(C(=O)CCN2CCCCC2=O)CC1,-62.8
13,Cc1sc2ncnc(Sc3nnc4sc5ccccc5n34)c2c1C,0.406
14,CN1C(C(=O)NCCc2cccs2)CC2Cn3c(nc4ccccc43)C21 (centres unmarked),-27.3
15,CCOC(=O)C1=C(C)NC(SCC(=O)Nc2cc(C)on2)=C(C#N)C1c1cccs1 (centres unmarked),5.13
16,COc1nc(-c2ccccc2)ccc1-c1noc(-c2ccccc2)n1,4.55
17,O=C(/C=C/c1ccc(Cl)cc1)NC1CCS(=O)(=O)C1 (centres unmarked),-58.7
18,CN=c1sc2ccccc2n1CC(O)COc1ccccc1 (centres unmarked),-57.5
19,COc1ccc2oc(=O)c(C(=O)NCc3ccccc3)cc2c1,-0.716
20,Cc1ccc(-c2noc(CCC(=O)NC3CC3)n2)cc1,0.431
21,CCOC(=O)C1CCN(CCC(=O)Nc2ccc(Br)c(C)c2)CC1,-62.8
22,O=C(Nc1cc(C(F)(F)F)ccc1-n1cncn1)C1CC1,11.8
23,O=C(Nc1ccc(S(=O)(=O)Nc2nccs2)cc1)C1CC(=O)N(c2ccccc2)C1 (centres unmarked),19.6

row,Structure (SMILES),"hERG current change (%, negative = inhibition) at 10uM [%]"
1,COc1ccc(CC(=O)Nc2ccc(S(=O)(=O)N(C)C)cc2)cc1OC,10.4
2,O=C(/C=C/Nc1ccccc1)c1ccc(Oc2ncccn2)cc1,-1.1
3,CC(C)(C)n1nnnc1C(c1cccs1)N1CCN(C(=O)c2ccco2)CC1 (centres unmarked),-33
4,COc1ccccc1N1CCN(CC(=O)c2ccc(F)cc2)CC1.Cl,15.7
5,O=C(COC(=O)c1cc([N+](=O)[O-])ccc1N1CCOCC1)Nc1c(Cl)cccc1C(F)(F)F,-6.31
6,Cc1cccc(C2=NOC(=O)/C2=C\c2ccccc2F)c1,9.48
7,COc1ccc(C2CC(=O)Oc3ccc(C(C)(C)C)cc32)cc1 (centres unmarked),-0.188
8,O=C(O)CCCN1C(=O)C2C3C=CC(C2C1=O)C1C(=O)N(CCCC(=O)O)C(=O)C31 (centres unmarked),9.89
9,CC(C)c1ccc(NC(=O)NC(C)c2ccc3c(c2)OCO3)cc1 (centres unmarked),0.863
10,OCCn1c(SCCOc2ccccc2)nc2ccccc21,-21.3
11,C=CCN1C(=O)C(Cc2ccccc2)S/C1=N/N=C/c1cccs1 (centres unmarked),8.44
12,O=C(Cn1nnc(-c2ccc3c(c2)OCO3)n1)Nc1ccccc1C(=O)O,19.3
13,COc1cc2c(cc1OC)C1(CCCCC1)CN(C)C2.Cl,-7.45
14,COc1cc(NC(=O)C2CCCO2)c(C(=O)O)cc1OC (centres unmarked),15.8
15,CC(C)(C)NC(=O)c1ccc(Cn2cc(C(F)(F)F)ccc2=O)cc1,10.9
16,COc1ccc(Cn2c(=O)[nH]c3cc(C(=O)N4CCN(c5ccccc5OC)CC4)ccc3c2=O)cc1,6.67
17,Cc1ccc(-c2nn(CC(=O)NCc3cc(-c4nn(C)c(=O)c5ccccc45)ccc3C)c(=O)c3ccccc23)cc1,-17
18,C/C(=N\Nc1nc2ccccc2[nH]1)c1ccc(C)o1,-17.7
19,C=CCNC(=O)C1CC1(c1cccc(C)c1)c1cccc(C)c1 (centres unmarked),6.03
20,O=C1CS/C(=N/N=C2C3CC4CC(C3)CC2C4)N1,-11.8
